The whole screen tested about 390,000 compounds, of which about 4,000 (1%) were called active. Inconclusive means that the source gave no clear call. Such entries were picked first, then a sample of the others. Calls come from the whole dose curve; as a rule, active = well fitted inhibition curve with a large enough effect; inconclusive = small, poorly fitted or top-dose-only effect; inactive = no such curve, though single readings can be large or run the other way. Potencies of inconclusive entries are doubtful fits and often do not repeat.
biological target: Thioredoxin reductase 1, cytoplasmic (Rattus norvegicus) (UniProt O89049); assay: qHTS Assay for Inhibitors of Mammalian Selenoprotein Thioredoxin Reductase 1 (TrxR1): qHTS; settings: recombinant rTrxR1, NADPH fluorescence consumption, selenite substrate; series mostly up to 114 µM; activity change, negative = inhibition: at the top concentration; note: nearly all actives have a fitted effect of over 65% in size
Procedure, shortened: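 Rat TrxR1 (90 nM in the dispensed reagent) was pre-reduced with 400 uM NADPH for 5 min at room temperature, then incubated with compound for 15 min. After 400 uM selenite was added, NADPH fluorescence (Ex 340/Em 450 nm) was followed for 8 min.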
% is set by controls: 0 for no effect and ±100 for the full control effect; potency is the fitted concentration of half-maximal effect; tags give direction and shape of the fitted curve.

Chain of UniProt O89049 (O89049 whole entry, looked up): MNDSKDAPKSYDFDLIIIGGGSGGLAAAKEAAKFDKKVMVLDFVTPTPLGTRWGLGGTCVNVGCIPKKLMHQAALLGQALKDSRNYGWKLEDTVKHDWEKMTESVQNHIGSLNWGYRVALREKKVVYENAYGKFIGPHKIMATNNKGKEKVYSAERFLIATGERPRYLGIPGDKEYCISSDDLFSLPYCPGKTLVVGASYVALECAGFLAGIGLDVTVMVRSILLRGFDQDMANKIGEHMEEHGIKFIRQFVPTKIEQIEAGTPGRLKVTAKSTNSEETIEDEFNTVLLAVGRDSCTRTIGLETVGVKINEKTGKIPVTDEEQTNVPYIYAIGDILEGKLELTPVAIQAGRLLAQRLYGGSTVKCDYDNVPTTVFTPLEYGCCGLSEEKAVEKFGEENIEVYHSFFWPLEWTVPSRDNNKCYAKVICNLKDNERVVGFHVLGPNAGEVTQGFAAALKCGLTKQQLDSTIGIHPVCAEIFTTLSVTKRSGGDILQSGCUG

| SMILES | activity change, negative = inhibition | Potency |
| --- | --- | --- |
| O=C(N/N=C/C=C/c1ccccc1)c1cccs1 | inactive: 28% | – |
| CCOC(=O)c1[nH]c2ccccc2c1NC(=S)Nc1cccc(C)c1 | – | inconclusive: 89.1 µM [inhibitor, partial curve, poor fit] |
| COc1ccc(O)c(C(=O)c2cnn(S(=O)(=O)c3ccc(C)cc3)c2)c1 | – | inconclusive: 89.1 µM [inhibitor, single point] |
| CCC(=O)OC1(C)C(=O)C=C2C=C(c3ccsc3)OC=C2C1=O (stereo unspecified) | – | inconclusive: 70.8 µM [inhibitor, partial curve] |
| COc1ccc(C)cc1COC(=O)c1[nH]c(C)c(C(C)=O)c1C | – | inconclusive: 56.2 µM [inhibitor, single point] |
| COc1ccc(C)cc1NC(=O)CCS(=O)(=O)c1ccc2c(c1)oc(=O)n2C | – | inconclusive: 25.1 µM [inhibitor, partial curve, poor fit] |
| Cc1cc2c(cc1C)N(C(=O)CSc1nncn1C)C(C)(C)c1ssc(=S)c1-2 | – | inconclusive: 56.2 µM [inhibitor, partial curve] |
| CCn1cc(C(=O)NCCCOC)c(=O)c2cc(S(=O)(=O)N3CCc4ccccc4C3)ccc21 | inactive: 8.72% | – |
| CC[C@H](C)[C@H](NC(=O)CNC(=O)COc1cc2c(c3oc(=O)cc(C)c13)CCC(C)(C)O2)C(=O)O | – | inconclusive: 89.1 µM [inhibitor, single point] |
| Cc1cc(C)c(C#N)c(SCc2[nH]nc3c2C(c2ccccc2)C(C#N)=C(N)O3)n1 (stereo unspecified) | – | inconclusive: 20 µM [inhibitor, partial curve] |
| O=C(CCN1C(=O)c2ccccc2C1=O)Nc1sc2c(c1C(=O)NCC1CCCO1)CCC2 (stereo unspecified) | – | inconclusive: 56.2 µM [inhibitor, partial curve, poor fit] |
| CC(NCc1ccc2c(c1)OCO2)C(=O)N1CCc2ccccc21 (stereo unspecified) | inactive: 10.3% | – |
| Cc1ccc(-c2ccc(CCC(=O)O)n2-c2ccc(C(N)=O)cc2)cc1 | – | inconclusive: 56.2 µM [inhibitor, partial curve, poor fit] |
| Cc1cc(-c2ccccc2)cc(-c2ccccc2)[n+]1C | inactive: 25.1% [at 57.1 µM] | – |
| O=Nc1c(O)ccc2cc(S(=O)(=O)O)ccc12 | – | inconclusive: 56.2 µM [inhibitor, partial curve, poor fit] |
| CC(C)N(CC(=O)Nc1ccc(Cl)cc1C(F)(F)F)C(=O)CCl | – | active: 15.8 µM |
| COc1cc(NS(=O)(=O)c2ccc(NC(=S)NC(=O)/C=C/c3ccc(F)cc3)cc2)ncn1 | – | inconclusive: 12.6 µM [inhibitor, partial curve] |
| COc1ccc2cc(C(=O)C3CCCN(Cc4cccc(C)n4)C3)ccc2c1 (stereo unspecified) | inactive: 39.3% [at 57.1 µM] | – |
| O=C(CN1CCN(c2ccc([N+](=O)[O-])cc2)CC1)c1ccccc1 | – | inconclusive: 22.4 µM [inhibitor, single point] |
| O=c1cc(-c2ccccc2Cl)c2c([nH]1)CCC2 | – | inconclusive: 15.8 µM [inhibitor, partial curve, poor fit] |
| CCOC(=O)/C=C/C(=O)OCC(=O)Nc1c(Cl)cccc1Cl | – | active: 50.1 µM |

| SMILES | activity change, negative = inhibition | Potency |
| --- | --- | --- |
| O=C1Cc2ccccc2C(=O)N1Cc1ccccc1 | – | inconclusive: 14.1 µM [inhibitor, partial curve, poor fit] |
| CC(C)CN1CCC(=O)N(C(CSc2ccc(Br)cc2)c2ccccc2)CC1 (stereo unspecified) | – | inconclusive: 22.4 µM [inhibitor, partial curve, poor fit] |
| COc1ccccc1S(=O)(=O)Cc1ccc(C(=O)NCCN2CCCCCC2)o1 | – | inconclusive: 17.8 µM [inhibitor, partial curve, poor fit] |
| COc1cc2nc(CCNCc3ccccc3)nc(NC3CCN(C)CC3)c2cc1OC | – | inconclusive: 50.1 µM [inhibitor, partial curve] |
| CCCOc1ccc(N)cc1N | – | inconclusive: 8.91 µM [inhibitor, full curve] |
| Cc1ccc(S(=O)(=O)Cn2nnnc2C(C(C)C)N2CCc3ccccc3C2)cc1 (stereo unspecified) | – | inconclusive: 0.631 µM [inhibitor, full curve, poor fit] |
| CC(CCc1ccccc1)NC(=O)C1CCN(S(=O)(=O)N2CCOCC2)CC1 (stereo unspecified) | – | inconclusive: 89.1 µM [inhibitor, single point] |
| O=C(NCCN1CCCC1)c1cccc(Cl)c1 | inactive: 9.61% [at 57.1 µM] | – |
| CCN(CC)CCCN1C(=O)C(=O)/C(=C(/O)c2ccc(OC)cc2)C1c1ccco1 (stereo unspecified) | – | inconclusive: 44.7 µM [inhibitor, partial curve, poor fit] |
| Cc1ccc(/C=C/C(=O)NCCc2c[nH]c3ccccc23)o1 | – | inconclusive: 35.5 µM [inhibitor, partial curve, poor fit] |
| Cc1ccc(-c2ccc(/C=N/NC(=O)CN3CCOCC3)o2)cc1[N+](=O)[O-] | – | inconclusive: 31.6 µM [inhibitor, full curve, poor fit] |
| COCCn1c(C)cc(C(=O)COC(=O)c2ccc([N+](=O)[O-])o2)c1C | – | inconclusive: 70.8 µM [inhibitor, single point] |
| COc1ccc(S(=O)(=O)N(C(=O)c2ccncc2)c2ccc(OC(=O)c3ccncc3)cc2)cc1 | – | inconclusive: 44.7 µM [inhibitor, partial curve] |
| Cn1c(-c2ccco2)n[nH]c1=S | – | inconclusive: 14.1 µM [inhibitor, partial curve, poor fit] |
| CSc1cccc(NS(=O)(=O)c2cn(C)cn2)c1 | – | active: 50.1 µM |
| CCOC(=O)N1CCN(c2cc(N(C)CCO)c([N+](=O)[O-])c3nonc23)CC1 | – | inconclusive: 44.7 µM [inhibitor, partial curve, poor fit] |
| O=C1C[C@H]2C=CCc3cccc(c32)CN1Cc1ccccc1 | – | inconclusive: 79.4 µM [inhibitor, single point] |
| CC(=O)c1cccc(NC(=S)NC(=O)c2cccc(Cl)c2)c1 | – | inconclusive: 14.1 µM [inhibitor, full curve] |
| COc1ccc(-c2cc(C(=O)OC3CCOC3=O)c3ccccc3n2)cc1 (stereo unspecified) | inactive: 84.5% | – |
| COc1cccc(CN2CCC(C(=O)N3CCN(c4ccccc4F)CC3)CC2)c1 | – | inconclusive: 35.5 µM [inhibitor, single point] |

From PubChem BioAssay AID588453 (National Center for Advancing Translational Sciences (NCATS), 2011)
